The source of these data is ChEMBL document CHEMBL4888484, “Replenishing the malaria drug discovery pipeline: Screening and hit evaluation of the MMV Hit Generation Library 1 (HGL1) against asexual blood stage Plasmodium falciparum ,using a nano luciferase reporter read-out” (2022).

About 540 (0.36%) of roughly 150,000 compounds showed an effect of 50% or more. Some of the results follow.

For the assay, the system named is Plasmodium falciparum. The assay is described as follows: Primary screen in NF54 nanoGlo assay, in single point, at 2uM, 72h; a lower Z score goes with more inhibition. The format is functional, Erythrocyte. Particulars: timepoint 72 hour.
For `CN(C)S(=O)(=O)c1ccc(N2CCC(c3ccnn3C)CC2)c(S(N)(=O)=O)c1`, the “% Inhibition” value is listed as -4% and the Z score was 0.57.
For `CCCCN1CCN(c2nc(-c3ccncc3)nc3c2c(C)nn3C)CC1=O`, the “% Inhibition” value is given as -11% and the Z score turned out to be 2.22.
Turning to `C=C(C)COc1ccc(C(=O)NC[C@H](C)n2cncn2)cc1`, the “% Inhibition” value is -8% and the Z score is 1.02.
Take `CCN(Cc1nnc(-c2ccccc2)o1)S(=O)(=O)c1cnn(C(F)F)c1`: the “% Inhibition” value turned out to be 5% and the Z score was -0.59.
As to `C[C@H]1CCCN(c2ccc(Cl)cc2NC(=O)CCc2ccnn2C)C1`, the “% Inhibition” value was -8% and the Z score is on record as 1.55.
For `COc1ccc(-c2nc(N)c(C#N)c(-c3c[nH]c(C)n3)c2C)cc1` the same measures were 9% and -1.32.
As to `CCc1nnc([C@H](C)Nc2ccc(OCc3ccco3)c(Cl)c2)o1`, the “% Inhibition” value is on record as -12% and the Z score is given as 1.24.
On the same counts, the results for `CCc1noc(CCNC(=O)CCc2csc(N)n2)n1` are 0% and 0.03.
For `Cn1nncc1NC(=O)NCCc1cccc2c1OCCO2`, the “% Inhibition” value is reported as -6% and the Z score came out at 0.9.
In the case of `Cn1ccc(NC(=O)NC[C@H]2CCCCN2C2CC2)n1`, the “% Inhibition” value is on record as -8% and the Z score is recorded as 1.42.
In the case of `CC1(C)CCc2nnc(CNC(=O)c3ccco3)n2C1`, the “% Inhibition” value is given as 4% and the Z score is -0.72.
In the case of `C=CCn1cc(CN[C@H](C(N)=O)C(C)C)c(C)n1`, the “% Inhibition” value is on record as -1% and the Z score was 0.17.
On the same counts, the results for `CC(=O)c1cccc(NC(=O)CC2CC3CCC2C3)c1` (stereo not given) are -12% and 1.65.
Take `Cn1cc(CN(CCn2cc(Cl)cn2)C2CC2)cn1`: the “% Inhibition” value is reported as -3% and the Z score came out at 0.59.
For `Cn1nnc2cc(-c3noc(-c4cccc(NC(=O)c5ccco5)c4)n3)ccc21`, the “% Inhibition” value was 26% and the Z score was -2.39.
As for `O=C(Cc1ccccc1F)N1CC2(C[C@H](N3CCCC3)CO2)C1`, the “% Inhibition” value is recorded as -7% and the Z score was found to be 0.84.
For `Cc1nn(CN(CCC#N)Cc2ccccn2)c(C)c1Br` the same measures were 4% and -0.58.
For `COC(=O)c1cc2n(n1)C[C@@](C)(C(=O)NC1CCC(C)CC1)N(Cc1ccccc1C)C2=O` (stereo not given in full) the same measures were 8% and -0.92.
For `Fc1cc(Cl)cc(-n2cc([C@H]3CCOC3)nn2)c1`, the “% Inhibition” value is -6% and the Z score amounted to 0.59.
For `Fc1cnc(OC2Cc3ccccc3C2)nc1` the same measures were 60% and -5.26.
As for `Cc1n[nH]c([C@@H]2CN(C(=O)c3cscn3)CCCN2Cc2ccccc2)n1`, the “% Inhibition” value is recorded as -9% and the Z score is 1.67.
With `CC(=O)c1ccc(-c2ccc(C(=O)N(C)c3cccc(CO)c3)o2)cc1`, the “% Inhibition” value was -17% and the Z score is reported as 2.29.
`Cc1n[nH]c(C(=O)NCCN2CCCC2=O)c1Cl`: the “% Inhibition” value was -13% and the Z score is reported as 1.63.
For the molecule `CC(=O)Nc1ccc(S(=O)(=O)N[C@H]2C[C@@H](c3nc(C)no3)N(C)C2)cc1`, the “% Inhibition” value is reported as 13% and the Z score is listed as -1.47.
Turning to `Cc1cccc(C)c1NC(=O)C1=NCCCN1`, the “% Inhibition” value was found to be 5% and the Z score was -0.53.
Turning to `CC[C@H]1COCCN1C(=O)c1ccn2nnnc2c1`, the “% Inhibition” value is reported as -14% and the Z score is reported as 1.81.
In the case of `Cc1nc(C(C)C)ncc1C(=O)N1CCNC[C@H]1C(=O)N1CCOCC1`, the “% Inhibition” value amounted to 2% and the Z score was -0.17.
Turning to `CN1CCC[C@@H]1CNC(=O)Nc1ccccc1C(F)(F)F`, the “% Inhibition” value was 0% and the Z score was found to be 0.05.
As to `CNC(=O)N1CCC[C@H](Oc2nc(C3CC3)nc3c2CCOCC3)C1`, the “% Inhibition” value is given as -13% and the Z score came out at 1.28.
On to `Cc1ncc(CC(=O)N2CCC[C@H](c3nc4c(C)cccc4[nH]3)C2)c(=O)[nH]1`, for which the “% Inhibition” value is recorded as -6% and the Z score stood at 0.82.
On to `COc1cccc(NS(=O)(=O)c2cc(-c3[nH]ncc3C(=O)N(C)C)oc2C)c1`, for which the “% Inhibition” value was determined as 5% and the Z score is listed as -0.56.
Turning to `CCOC(=O)c1cnc2nccc(C)c2c1O`, the “% Inhibition” value is given as -34% and the Z score came to 3.99.
For `O=C(Nc1cccc(COC2CCCCC2)c1)[C@H]1CCc2nccn2C1` the same measures were -1% and 0.11.
For the molecule `CN(C)C[C@H]1CN(CCc2ccccn2)CCO1`, the “% Inhibition” value is -9% and the Z score is reported as 0.94.
As to `Cc1cc2cc(CNC3(CO)CCOCC3)oc2cc1C`, the “% Inhibition” value is -5% and the Z score is 0.9.
`CC[C@H](C)CN1CCC(O)(c2ncnn2C)CC1`: the “% Inhibition” value is on record as -11% and the Z score was 1.1.
For `COc1cccc(CC(=O)Nc2cc(S(=O)(=O)N3CCOCC3)ccc2N2CCOCC2)c1` the same measures were -3% and 0.46.
With `Cn1cnc2c1CCN(c1nnc(-c3ccccc3)s1)C2`, the “% Inhibition” value was 14% and the Z score was -2.64.
Turning to `Cc1ccccc1S(=O)(=O)N1CCC(N2CC(F)(F)C[C@H]2CN(C)C)CC1`, the “% Inhibition” value is -4% and the Z score was found to be 0.68.
On to `CCOc1nnc(CN(CCC(N)=O)c2ccc(F)cc2)s1`, for which the “% Inhibition” value is reported as -8% and the Z score turned out to be 0.83.
For `CN1CCCC[C@@H]1CC(=O)N1CCN(c2ccc3nccn3n2)CC1` the same measures were -8% and 1.72.
Take `CCOc1ccnc(N2CC[C@H](C(C)(C)O)C2)n1`: the “% Inhibition” value is recorded as 2% and the Z score is -0.38.
On the same counts, the results for `O=C1C[C@H](Nc2cc(-c3ccccc3)nc3ncnn23)CN1C1CC1` are -13% and 1.53.
For the molecule `O=S(=O)(CCNc1ncccc1F)NCC1CCC1`, the “% Inhibition” value is given as -8% and the Z score is reported as 0.84.
Regarding `O=S1(=O)CC[C@H](NS(=O)(=O)c2ccccc2-c2ccno2)C1`, the “% Inhibition” value amounted to 9% and the Z score is given as -1.21.
With `Cc1ccc(C(=O)OCCc2cn3c(n2)CCCC3)c(F)c1`, the “% Inhibition” value is recorded as -5% and the Z score is 0.75.
With `COCc1noc(C(C)N(C)CC2CCCCO2)n1` (stereo not given), the “% Inhibition” value was -12% and the Z score is recorded as 2.12.
Regarding `CN(C)c1nc(N2CCC(CCC(=O)N3CCOCC3)CC2)ncc1F`, the “% Inhibition” value was 3% and the Z score is recorded as -0.46.
Take `O=C(N[C@@]1(CO)CCOC1)c1nn(-c2ccc(Cl)cc2F)c2c1CCC2`: the “% Inhibition” value is given as -18% and the Z score is reported as 2.37.
Regarding `O=C(NCCO)Nc1ccc(OC(F)(F)F)cc1Br`, the “% Inhibition” value is listed as -13% and the Z score was 1.66.
In the case of `Cc1nc(C(=O)N2CC[C@@H]3OCc4cccc(c4)Oc4cccc(c4)CCC(=O)N(C)CC(=O)N[C@@H]3C2)cs1`, the “% Inhibition” value is on record as 8% and the Z score is listed as -1.12.
Take `CCC(CC)NC(=O)C1CC(=O)CC1C(=O)NC(CC)CC` (stereo not given): the “% Inhibition” value is on record as -6% and the Z score is reported as 0.96.
On the same counts, the results for `Cc1ccc2oc(N3CCN(C(=O)NCCc4cnn(C)c4)CC3)nc2c1` are 8% and -1.6.
On to `CCc1nc(C)sc1CNC1CCN(c2ccc(C)cc2)CC1`, for which the “% Inhibition” value is -14% and the Z score was determined as 1.44.
Consider `CC(=O)c1nnc(-c2nc3ccccc3s2)n1Nc1ccc(S(N)(=O)=O)cc1`, for which the “% Inhibition” value was found to be 10% and the Z score is -1.75.

For orientation: % Inhibition means the drop in the measured response relative to a control, in per cent.
